{"source": "paper PMC11995724", "about": "“Antibiotic target discovery by integrated phenotypic and activity-based profiling of electrophilic fragments” (Cell chemical biology, 2025)", "note": "Screen size: about 3,200 compounds; about 110 (3.4%) showed an effect of 50% or more. Some of the results follow."}
{"test_system": "T1, V. cholerae SAD30", "T1 construct": "SAD30", "parameters": "species or system S. aureus MSSA476 (TSB) or V. cholerae SAD30 (LB); 384-well bacterial growth screen at 25 uM, OD600 relative to DMSO control", "settings": "relative growth, OD600, LB; 25 µM; inhibitor", "units": {"% of control remaining": "%"}}
{"compound": "C=CC(=O)N(C)Cc1cn(C)nc1C(C)C", "note": "[3-F15, N-methyl-N-{[1-methyl-3-(propan-2-yl)-1H-pyrazol-4-yl]methyl}prop-2-enamide]", "% of control remaining": 93.3248}
{"compound": "N#CC(=Cc1ccc(C#N)cc1)C(=O)N1CCCC1", "note": "[9-P21, 4-[2-cyano-2-(pyrrolidine-1-carbonyl)eth-1-en-1-yl]benzonitrile]", "% of control remaining": 93.8817}
{"compound": "C=CC(=O)NCc1coc(-c2cccs2)n1", "note": "[1-C07, N-{[2-(thiophen-2-yl)-1,3-oxazol-4-yl]methyl}prop-2-enamide]", "% of control remaining": 94.1704}
{"compound": "Cc1ccc(NC(=O)C(C#N)=Cc2ccc(C)s2)c(C)c1", "note": "[8-D09, 2-cyano-N-(2,4-dimethylphenyl)-3-(5-methylthiophen-2-yl)prop-2-enamide]", "% of control remaining": 79.1978}
{"compound": "CC(c1cccs1)N(C)C(=O)CCl", "note": "(stereo not shown) [6-M21, 2-chloro-N-methyl-N-[1-(thiophen-2-yl)ethyl]acetamide]", "% of control remaining": 98.1325}
{"compound": "Cc1cccc2nc(C3CCN(C(=O)C(C)Cl)CC3)oc12", "note": "(stereo not shown) [7-M12, 2-chloro-1-[4-(7-methyl-1,3-benzoxazol-2-yl)piperidin-1-yl]propan-1-one]", "% of control remaining": 63.8361}
{"compound": "O=C(CCl)N1CCC(OCc2ccccc2)CC1", "note": "[4-H19, 1-[4-(benzyloxy)piperidin-1-yl]-2-chloroethan-1-one]", "% of control remaining": 95.0615}
{"compound": "CC(Oc1cccc(F)c1F)C(=O)N1CCN(C(=O)CCl)CC1", "note": "(stereo not shown) [5-H03, 1-[4-(2-chloroacetyl)piperazin-1-yl]-2-(2,3-difluorophenoxy)propan-1-one]", "% of control remaining": 112.136}
{"compound": "COCC(C)NC(=O)C(C#N)=Cc1ccc(F)c(C)c1", "note": "(stereo not shown) [9-H09, 2-cyano-3-(4-fluoro-3-methylphenyl)-N-(1-methoxypropan-2-yl)prop-2-enamide]", "% of control remaining": 91.2984}
{"compound": "Cc1ccc(-n2c(C)cc(C(=O)CCl)c2C)cc1C", "note": "[10-B14, 2-chloro-1-[1-(3,4-dimethylphenyl)-2,5-dimethyl-1H-pyrrol-3-yl]ethan-1-one]", "% of control remaining": 97.5648}
{"compound": "C=CC(=O)NCCC(=O)N1CCCC1c1cc(C)on1", "note": "(stereo not shown) [2-C12, N-{3-[2-(5-methyl-1,2-oxazol-3-yl)pyrrolidin-1-yl]-3-oxopropyl}prop-2-enamide]", "% of control remaining": 89.1151}
{"compound": "C=CC(=O)N1CCC(n2ccc(C)n2)CC1", "note": "[2-A21, 1-[4-(3-methyl-1H-pyrazol-1-yl)piperidin-1-yl]prop-2-en-1-one]", "% of control remaining": 103.165}
{"compound": "C=CC(=O)NCc1conc1C1CCC1", "note": "[1-N06, N-[(3-cyclobutyl-1,2-oxazol-4-yl)methyl]prop-2-enamide]", "% of control remaining": 107.704}
{"compound": "CC(Cl)C(=O)N(C)Cc1cn(C)nc1C(F)(F)F", "note": "(stereo not shown) [7-M04, 2-chloro-N-methyl-N-{[1-methyl-3-(trifluoromethyl)-1H-pyrazol-4-yl]methyl}propanamide]", "% of control remaining": 86.4365}
{"compound": "CC(Cl)C(=O)NCc1ccco1", "note": "(stereo not shown) [5-B09, 2-chloro-N-[(furan-2-yl)methyl]propanamide]", "% of control remaining": 92.298}
{"compound": "O=C(CCl)Nc1cc(C(=O)O)cc(C(=O)O)c1", "note": "[4-B04, 5-(2-chloroacetamido)benzene-1,3-dicarboxylic acid]", "% of control remaining": 102.998}
{"compound": "C=CC(=O)NCc1ncccc1S(C)(=O)=O", "note": "[2-D21, N-[(3-methanesulfonylpyridin-2-yl)methyl]prop-2-enamide]", "% of control remaining": 102.084}
{"compound": "CCN(CC)S(=O)(=O)c1cccc(NC(=O)CCl)c1", "note": "[4-M07, 2-chloro-N-[3-(diethylsulfamoyl)phenyl]acetamide]", "% of control remaining": 105.931}
{"compound": "C=CC(=O)N1CCC(n2cc(C(N)=O)nn2)C1", "note": "(stereo not shown) [1-C18, 1-[1-(prop-2-enoyl)pyrrolidin-3-yl]-1H-1,2,3-triazole-4-carboxamide]", "% of control remaining": 87.145}
{"compound": "COc1ccc(N(C)C(=O)C(C)Cl)cc1Cl", "note": "(stereo not shown) [7-C14, 2-chloro-N-(3-chloro-4-methoxyphenyl)-N-methylpropanamide]", "% of control remaining": 74.0129}
{"compound": "CC(Cl)C(=O)Nc1ccccc1C(N)=O", "note": "(stereo not shown) [5-G05, 2-(2-chloropropanamido)benzamide]", "% of control remaining": 106.42}
{"compound": "COc1ccc(CNC(=O)C(C)Cl)cc1", "note": "(stereo not shown) [5-J18, 2-chloro-N-[(4-methoxyphenyl)methyl]propanamide]", "% of control remaining": 97.1735}
{"compound": "Cc1ccc(C)c(NC(=O)CN(C)C(=O)CCl)c1", "note": "[6-N04, 2-chloro-N-{[(2,5-dimethylphenyl)carbamoyl]methyl}-N-methylacetamide]", "% of control remaining": 95.7058}
{"compound": "C=CCNC(=O)C(C#N)=CC=Cc1ccccc1", "note": "[9-J08, 2-cyano-5-phenyl-N-(prop-2-en-1-yl)penta-2,4-dienamide]", "% of control remaining": 79.4697}
{"compound": "C=CC(=O)NCCn1cc(Cl)c(C(F)(F)F)n1", "note": "[2-F03, N-{2-[4-chloro-3-(trifluoromethyl)-1H-pyrazol-1-yl]ethyl}prop-2-enamide]", "% of control remaining": 108.106}
{"compound": "O=C(CCl)N1CCOc2c1cccc2C(F)(F)F", "note": "[5-G08, 2-chloro-1-[8-(trifluoromethyl)-3,4-dihydro-2H-1,4-benzoxazin-4-yl]ethan-1-one]", "% of control remaining": 76.6628}
{"compound": "CCN(CC)S(=O)(=O)c1ccc(NC(=O)CCl)cc1", "note": "[4-K07, 2-chloro-N-[4-(diethylsulfamoyl)phenyl]acetamide]", "% of control remaining": 100.237}
{"compound": "Cn1cc(CN(C(=O)CCl)c2ccc(F)cc2)cn1", "note": "[6-D08, 2-chloro-N-(4-fluorophenyl)-N-[(1-methyl-1H-pyrazol-4-yl)methyl]acetamide]", "% of control remaining": 84.6336}
{"compound": "C=CC(=O)N1CCC(C(=O)NCc2ccoc2C)CC1", "note": "[1-E14, N-[(2-methylfuran-3-yl)methyl]-1-(prop-2-enoyl)piperidine-4-carboxamide]", "% of control remaining": 89.0882}
{"compound": "O=C(CCl)NCc1cc(O)ccc1Cl", "note": "[7-J21, 2-chloro-N-[(2-chloro-5-hydroxyphenyl)methyl]acetamide]", "% of control remaining": 94.7629}
{"compound": "O=C(CCl)N1N=C(c2ccsc2)CC1c1cccc(F)c1", "note": "(stereo not shown) [4-C22, 2-chloro-1-[5-(3-fluorophenyl)-3-(thiophen-3-yl)-4,5-dihydro-1H-pyrazol-1-yl]ethan-1-one]", "% of control remaining": 124.563}
{"compound": "O=C(CCl)N(CC1=CCSC1)c1ccccc1", "note": "[4-F11, 2-chloro-N-[(2,5-dihydrothiophen-3-yl)methyl]-N-phenylacetamide]", "% of control remaining": 104.205}
{"compound": "C=CC(=O)NCc1cn(C2CCC2)nn1", "note": "[3-D09, N-[(1-cyclobutyl-1H-1,2,3-triazol-4-yl)methyl]prop-2-enamide]", "% of control remaining": 94.0305}
{"compound": "C=CC(=O)Nc1ccc2c(c1)S(=O)(=O)CC2", "note": "[3-O15, N-(1,1-dioxo-2,3-dihydro-1lambda6-benzothiophen-6-yl)prop-2-enamide]", "% of control remaining": 104.97}
{"compound": "Cc1ccoc1C=C(C#N)C(=O)NCCc1ccccc1", "note": "[9-N03, 2-cyano-3-(3-methylfuran-2-yl)-N-(2-phenylethyl)prop-2-enamide]", "% of control remaining": 85.588}
{"compound": "C=CC(=O)NCCc1nnc(C)s1", "note": "[3-G22, N-[2-(5-methyl-1,3,4-thiadiazol-2-yl)ethyl]prop-2-enamide]", "% of control remaining": 109.204}
{"compound": "C=CC(=O)NC1CN(C(C)=O)C1", "note": "[1-N22, N-(1-acetylazetidin-3-yl)prop-2-enamide]", "% of control remaining": 144.014}
{"compound": "C=CC(=O)NCC(c1c(F)cccc1F)N1CC(C)OC(C)C1", "note": "(stereo not shown) [1-I13, N-[2-(2,6-difluorophenyl)-2-(2,6-dimethylmorpholin-4-yl)ethyl]prop-2-enamide]", "% of control remaining": 82.5112}
{"compound": "O=C(CCl)N1N=C(c2cccs2)CC1c1cccc(O)c1", "note": "(stereo not shown) [6-L04, 2-chloro-1-[5-(3-hydroxyphenyl)-3-(thiophen-2-yl)-4,5-dihydro-1H-pyrazol-1-yl]ethan-1-one]", "% of control remaining": 102.076}
{"compound": "CC(Cl)C(=O)N(C)CC(=O)Nc1ccccc1C(F)(F)F", "note": "(stereo not shown) [4-N05, 2-chloro-N-methyl-N-({[2-(trifluoromethyl)phenyl]carbamoyl}methyl)propanamide]", "% of control remaining": 110.761}
{"compound": "CC(C)NC(=O)C(C#N)=Cc1ccc(Cl)cc1", "note": "[9-C09, 3-(4-chlorophenyl)-2-cyano-N-(propan-2-yl)prop-2-enamide]", "% of control remaining": 85.3161}
{"compound": "O=C(CCl)NCC1CN(Cc2ccccc2)CCO1", "note": "(stereo not shown) [4-H18, N-[(4-benzylmorpholin-2-yl)methyl]-2-chloroacetamide]", "% of control remaining": 103.343}
{"compound": "C=CC(=O)N1CCC(C(=O)N2CCCCCC2c2ccco2)CC1", "note": "(stereo not shown) [2-N20, 1-{4-[2-(furan-2-yl)azepane-1-carbonyl]piperidin-1-yl}prop-2-en-1-one]", "% of control remaining": 91.4311}
{"compound": "Cc1nc(C)n(C2CCCN(C(=O)C(C)Cl)C2)n1", "note": "(stereo not shown) [7-P13, 2-chloro-1-[3-(3,5-dimethyl-1H-1,2,4-triazol-1-yl)piperidin-1-yl]propan-1-one]", "% of control remaining": 82.3393}
{"compound": "N#CC(=Cc1ccc(F)c(F)c1)C(=O)NC1CC1", "note": "[9-M06, 2-cyano-N-cyclopropyl-3-(3,4-difluorophenyl)prop-2-enamide]", "% of control remaining": 89.8029}
{"compound": "C=CC(=O)Nc1cc(C(C)(C)C)nn1-c1ncccn1", "note": "[1-E04, N-[3-tert-butyl-1-(pyrimidin-2-yl)-1H-pyrazol-5-yl]prop-2-enamide]", "% of control remaining": 99.5516}
